From publication PMC4336329 (PLoS ONE, 2015)
In all, about 310,000 compounds went through this assay and about 2,200 (0.71%) showed an effect of 50% or more. Effects have a minus sign here. Some of the results follow.

The compounds below were run against human ether-à-go-go-related gene (hERG) potassium channel (human, UniProt Q12809) (assay: primary screen, population patch clamp on CHO cells stably expressing hERG).
human ether-à-go-go-related gene (hERG) potassium channel, sequence (Q12809 whole entry, looked up): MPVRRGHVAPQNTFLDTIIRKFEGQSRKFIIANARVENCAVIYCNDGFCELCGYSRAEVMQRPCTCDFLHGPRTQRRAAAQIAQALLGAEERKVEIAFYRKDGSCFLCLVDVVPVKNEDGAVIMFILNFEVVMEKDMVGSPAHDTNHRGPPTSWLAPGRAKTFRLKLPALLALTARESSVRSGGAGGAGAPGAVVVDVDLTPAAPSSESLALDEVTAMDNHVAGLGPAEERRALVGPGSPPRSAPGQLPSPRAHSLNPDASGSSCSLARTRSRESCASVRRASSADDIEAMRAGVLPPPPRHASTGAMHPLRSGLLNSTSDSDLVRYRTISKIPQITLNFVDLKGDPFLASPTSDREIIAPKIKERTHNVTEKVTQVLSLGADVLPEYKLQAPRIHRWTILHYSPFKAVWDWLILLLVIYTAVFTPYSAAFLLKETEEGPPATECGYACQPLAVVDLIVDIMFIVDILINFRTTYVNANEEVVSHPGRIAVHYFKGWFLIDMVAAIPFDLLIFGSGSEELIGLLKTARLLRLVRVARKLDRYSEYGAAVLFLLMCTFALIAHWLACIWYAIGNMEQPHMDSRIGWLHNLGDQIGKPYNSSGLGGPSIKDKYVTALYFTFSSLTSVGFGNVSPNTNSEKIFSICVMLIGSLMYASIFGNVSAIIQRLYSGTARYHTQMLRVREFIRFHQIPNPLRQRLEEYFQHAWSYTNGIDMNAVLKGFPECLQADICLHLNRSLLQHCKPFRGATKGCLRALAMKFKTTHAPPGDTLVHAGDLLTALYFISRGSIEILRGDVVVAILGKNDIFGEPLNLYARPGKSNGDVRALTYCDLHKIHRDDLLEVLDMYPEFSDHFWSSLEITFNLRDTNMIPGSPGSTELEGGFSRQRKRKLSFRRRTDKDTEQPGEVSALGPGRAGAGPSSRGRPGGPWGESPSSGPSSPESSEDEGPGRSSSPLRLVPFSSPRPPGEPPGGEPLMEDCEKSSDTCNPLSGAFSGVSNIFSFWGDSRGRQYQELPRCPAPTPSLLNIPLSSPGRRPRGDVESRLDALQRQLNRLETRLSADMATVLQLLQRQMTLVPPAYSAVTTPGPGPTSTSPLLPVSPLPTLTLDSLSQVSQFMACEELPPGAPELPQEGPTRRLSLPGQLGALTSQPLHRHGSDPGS

Point of comparison: COC(=O)COc1ccc(S(=O)(=O)Nc2ccc(C(N)=O)cc2)cc1Cl, “hERG current change (%, negative = inhibition) at 1uM” value 19.9%. Against it:
- CCc1nn2c(=O)cc(COC(=O)c3ccc(SC)cc3OC)nc2s1 — lower, 10.5%
- COc1ccc(S(=O)(=O)N2CCCCCC2)cc1C(=O)N(C)CC(=O)Nc1c(Cl)cccc1Cl — lower, 4.23%
- CCCCc1ccc(NC(=O)COc2ccc(C(=O)Nc3ccccc3OCC)cc2)cc1 — lower, 13.9%
- COc1cccc(NC(=S)N(CCCN2CCCC(C)C2)Cc2cccs2)c1 (stereo not drawn) — lower, -30.2%
- Cc1ccc(NC(=O)c2ccccc2)cc1OC(=O)c1ccccc1 — lower, 15%
- COc1ccc2nc(N3C(=O)C(O)=C(C(=O)c4ccco4)C3c3ccccc3OC)sc2c1 (stereo not drawn) — lower, 4%
- C#CCNC(=O)C1=C[C@@H](c2csc3ccccc23)C[C@@H](OCc2ccc(CO)cc2)O1 — lower, 8.8%
- O=c1cc(NC2CCCCCC2)[nH]c(=O)[nH]1 — lower, 0.773%
- CCN(CC)CCn1cnc2c1c(=O)n(CCOC(=O)c1cc(OC)c(OC)c(OC)c1)c(=O)n2C.Cl — lower, -21%
- CCc1cccc2c(/C=N/NC(=O)c3cccc(S(=O)(=O)Nc4ccccc4Cl)c3)c[nH]c12 — lower, 16.1%
- CC(C)(O)C(=O)NN(C(=O)c1ccccc1)c1ccc2ccccc2c1 — lower, 6.78%
- O=C(CCCCCNC(=O)c1ccccc1)C[N+](=O)[O-] — lower, 8.57%
- CCc1cc(C(=O)Nc2cc(S(=O)(=O)N(C)C)ccc2C)sc1C — lower, -2.22%
- O=C(NNC(=O)c1cc(Br)c(Br)s1)c1ccncc1 — lower, 5.26%
- CCCOc1ccc(CC(=O)N/N=C\c2ccc(F)cc2)cc1 — lower, 9.41%
- Cc1ccc(-n2nc(C)c3onc(C)c3c2=O)cc1 — lower, 11.8%
- O=C(c1ccc(Cl)cc1)N1CCCC(C(=O)N2CCN(c3ccccc3)CC2)C1 (stereo not drawn) — lower, -12.2%
- COc1ccc(NC(=O)CSc2nnc(C3CCCCC3)n2N)cc1OC — higher, 30.2%
- COc1cccc(Nc2nc(-c3cccs3)nc3ccccc23)c1 — lower, 5.54%
- CC(=O)Oc1ccc(/C=C(\NC(=O)c2ccco2)C(=O)NCc2ccco2)cc1 — lower, -11%
- Cc1ccc(S(=O)(=O)NCCCn2ccnc2)cc1C(=O)NC(C)C — lower, 13.1%
- O=C(NCc1ccccc1)NC12CC3CC(CC(C3)C1)C2 — lower, 7.64%
- Cc1ccc(S(=O)(=O)N2CCOC23CCN(C(=O)c2cc(Cl)ccc2Cl)CC3)cc1 — lower, 4.66%
- CCCCCCn1nc(C(=O)N(CC(C)C)c2c(N)n(CCCC)c(=O)[nH]c2=O)c2ccccc2c1=O — lower, 6.49%
- O=C(NNS(=O)(=O)c1ccc(F)cc1)c1ccccc1O — lower, 13.6%
- O=c1c(Cl)c(N/N=C/c2ccc(Cl)cc2)cnn1-c1ccccc1 — lower, 3.1%
- COc1ccc(C(=O)Nc2cc(Cl)ccc2C(=O)O)cc1 — lower, 15.3%
- CC(C)Cn1c(SCC(=O)Nc2cc(Cl)c(Cl)cc2Cl)nc(O)cc1=O — lower, 6.48%
- O=C(COC(=O)/C=C/c1ccco1)NCc1ccccc1Cl — lower, 12.9%
- O=C(NCc1ccccc1)c1onc(CSc2ccccc2)c1C(=O)NCC1CC1 — lower, -7.12%
- Cc1occc1-c1nnc(SCc2nnc(-c3ccc(Cl)cc3)o2)n1C — lower, -10.9%
- COc1ccccc1NC(=O)CSCc1cc(=O)n2ccsc2n1 — lower, 13.4%
- COc1ccc(C)cc1NC(=O)c1ccc(OC(F)F)cc1 — lower, 7.38%
- COC(=O)c1cc(C(=O)Nc2ccc(Cl)cn2)cc([N+](=O)[O-])c1 — lower, 4.96%
- COc1ccccc1CN1CC(=O)N2CSC[C@H]2C1=O — lower, 8.7%
- CCOc1ccc(C(=O)NCC(=O)N2CCCC2)cc1 — lower, 6.73%
- COCCn1nnnc1C(c1ccccn1)N1CCN(c2cc(C)ccc2C)CC1.Cl (stereo not drawn) — lower, 9.25%
- O=C1CC(=C2c3ccccc3-c3ccccc32)C(=O)N1CCN1CCN(c2cccc(Cl)c2)CC1 — lower, 7.4%
- C/C(=N\NC(=O)c1ccc(NS(=O)(=O)c2cccs2)cc1)c1ccc(C(C)(C)C)cc1 — lower, 7.57%
- CN1CCN(C(=O)c2cnn(-c3ccccc3)c2NC(=O)c2ccccc2Br)CC1 — lower, 15.2%
- Cc1ccc(C(c2ccc(C)o2)c2cccc([N+](=O)[O-])c2O)o1 — lower, 1.45%
- Cc1ccc(OC(C)C(=O)Nc2ccc3c(c2)n(C)c(=O)n3C)cc1C (stereo not drawn) — lower, 11.4%
- COc1ccccc1CNC(=O)Cc1ccccc1 — lower, 8.24%
- CC12COC3(P(=O)(c4ccccc4)c4ccccc4)CC1CCC23CP(=O)(c1ccccc1)c1ccccc1 (stereo not drawn) — lower, 7.74%
- Cc1cc(=O)[nH]c(SCC(=O)N2CCN(C(c3ccccc3)c3ccccc3)CC2)n1 — lower, 2.8%
- CC(=O)c1ccc(Nc2nc(NCCO)nc(OC(C(F)(F)F)C(F)(F)F)n2)cc1 — lower, 3.66%
- O=C(NCCCN1CCOCC1)c1ccc2c(c1)N(Cc1cccc(F)c1)C(=O)c1ccccc1S2 — lower, 18.9%
- COc1ccc(OC)c(/C=C2/Sc3ccccc3C2=O)c1 — lower, 14.4%
- CCc1cc2c(=O)c(-c3nc4ccccc4n3C)coc2c(CN2CCN(C)CC2)c1O — lower, -1.89%
- Br.COc1ccc2c(c1)[C@]13CCCC[C@@H]1[C@H](C2)N(C)CC3.O — lower, 12.8%
- CCOc1cc(/C=N/NC(N)=O)cc(Br)c1OCC(=O)Nc1cccc2ccccc12 — lower, 14.3%
- O=C(CSc1ncnc2c1oc1ccccc12)Nc1ccccc1F — lower, 16.4%
- CC(C)c1ccc(S(=O)(=O)NCc2ccc3c(c2)OCO3)cc1 — lower, 11.5%
